In PubChem BioAssay (Tox21):
This list was built around the results that the source calls inconclusive (neither active nor inactive); the mix of calls is not that of the screen. A potency beside an inconclusive call is a rough fit, not a confirmed value. Activity calls are given as the source filed them. The call rests on the fitted dose curve; in most records, active means well fitted cell-killing curve with a large enough effect in the repeat runs; inconclusive means weak or mixed curves, or effect the other way; inactive means flat fitted curve, though single readings scatter.

Assay: qHTS assay to identify small molecule agonists of the constitutive androstane receptor (CAR) signaling pathway - cell viability counter screen (AID 1224836); further: nearly all actives have a fitted effect of over 45% in size
Details: HepG2-CYP2B6-hCAR viability, CellTiter-Fluor, 23 h, PK11195 added to every well; series mostly up to 92.4 µM
From the text: U.S. Tox21 Program National Center for Advancing Translational Sciences [NCATS] NIH Chemical Genomics Center [NCGC] U.S. Environmental Protection Agency [EPA] National Institutes of Environmental Health Sciences [NIEHS] National Toxicology Program [NTP] U.S. Food and Drug Administration [FDA] Tox21 Assay Overview: The constitutive androstane receptor (CAR) is a nuclear receptor which regulates multiple drug metabolizing enzymes (DMEs) and transporters. Activating CAR will generally increase the transcription and subsequent translation of CYP2B6 and CYP3A4. These two DMEs represent about 50% of the drug metabolizing potential in the body. […] Recently, there have also been studies performed indicating CARs role in energy metabolism and cancer therapy. Therefore, inducing CARs activity could have a potential effect on diabetes and cancer. Identifying environmental toxins and compounds which modulate CAR, through the use of the Tox21 10K compound collection, will be an important step in determining the toxicity and potential therapeutic effects these factors will have on the human body. To differentiate true CAR agonists from cytotoxic substances, the assay is multiplexed with a cell viability assay.
Tox21 Assay Protocol Summary: A double-stable (hCAR and CYP2B6-2.2kb) transfected cell line, derived from human hepatoma (HepG2) cells, was utilized for the duration of the quantitative high-throughput screens. The HepG2-CYP2B6-hCAR cells were dispensed at 2500 cells/4 uL/well in 1536-well white solid bottom plates using a Multidrop Combi. After the assay plates were incubated at 37 C/5% CO2 for 4 hrs, 23 nL of compounds at 15 concentrations (from 5-48 columns) or positive control (from 1 to 4 columns) were transferred to the assay plates using a Pintool station. One uL of PK11195 (final concentration = 0.75 uM) was added, using a Flying Reagent Dispenser, inside each well. After a 23 hr incubation period at 37 C/5% CO2, 1 uL of CellTiter-Fluor reagent was added into each well of the assay plates using a Flying Reagent Dispenser. The fluorescence intensity in the plates was then measured using a ViewLux plate reader.
Potency means the concentration at half of the fitted maximal effect; tags describe the fitted curve by direction and shape.

Compound	Potency
COC(OC)C(C)c1ccccc1 (stereo not given)	inactive
CC(C)C[C@H]1C(=O)N2CCC[C@H]2[C@]2(O)O[C@](NC(=O)[C@@H]3C=C4c5cccc6[nH]c(Br)c(c56)C[C@H]4N(C)C3)(C(C)C)C(=O)N12	inconclusive: 20.7 µM [cytotoxic, partial curve, poor fit]
O=P(OC(CCl)CCl)(OC(CCl)CCl)OC(CCl)CCl	inconclusive: 68.2 µM [cytotoxic, partial curve, poor fit]
Cc1c(Cl)c(=O)oc2cc(O)ccc12	inconclusive: 54.5 µM [rising, partial curve]
OCc1cc(C(O)CNCCCCCCOCCCCc2ccccc2)ccc1O (stereo not given)	active: 10.6 µM
O=C(O)c1cccnc1Nc1cccc(C(F)(F)F)c1	inactive
CC1=NN(c2cc(S(=O)(=O)O)ccc2Cl)C(=O)C1N=Nc1ccccc1 (stereo not given)	inconclusive: 43.3 µM [cytotoxic, partial curve]
N[C@@H](CCC(=O)Nc1ccc([N+](=O)[O-])cc1)C(=O)O	inconclusive: 48.6 µM [cytotoxic, partial curve]
N#CCN(CC#N)CCN(CC#N)CC#N	inactive
CC1=CC(=O)NS(=O)(=O)O1	inconclusive: 54.6 µM [cytotoxic, partial curve]
NC(Cc1c[nH]c2ccccc12)C(=O)O (stereo not given)	inactive
CCN(Cc1ccccc1)c1ccccc1	inconclusive: 42.7 µM [cytotoxic, partial curve]
NCCCN1CCOCC1	inactive
COc1cc2c(N3CCN(C(=O)Nc4ccc(OC(C)C)cc4)CC3)ncnc2cc1OCCCN1CCCCC1	inconclusive: 21.1 µM [cytotoxic, partial curve, poor fit]
CN(C)C(=O)C(CCN1CCC(O)(c2ccc(Cl)cc2)CC1)(c1ccccc1)c1ccccc1	inconclusive: 26.6 µM [cytotoxic, partial curve, poor fit]
NS(=O)(=O)c1cc(-c2nn[nH]n2)c(NCc2cccs2)cc1Cl	inconclusive: 18.8 µM [cytotoxic]
COc1ccc(N)c(OC)c1	inactive
C=Cc1ccc(O)c(OC)c1	inactive
OC(CN1CCC(Cc2ccc(F)cc2)CC1)c1ccc(Cl)cc1 (stereo not given)	inconclusive: 29.8 µM [cytotoxic]
CC(=O)CC(=O)Nc1ccc(C)cc1C	inactive

Compound	Potency
CCN(CC)CCNc1ccc(CNC=O)c2sc3ccc(OC)cc3c(=O)c12	active: 8.63 µM
Nc1ccc2c(S(=O)(=O)O)cccc2c1S(=O)(=O)O	inconclusive: 15 µM [rising, partial curve, poor fit]
CCOC(=O)COc1ccc2c(c1)CC(NCC(O)c1cccc(Cl)c1)CC2 (stereo not given)	inconclusive: 54.9 µM [cytotoxic]
CN(C)CCCOc1nn(Cc2ccccc2)c2ccccc12	inconclusive: 29.8 µM [cytotoxic]
F[B-](F)(F)F	inconclusive: 69.6 µM [cytotoxic, single point]
CCCCC(=O)O[C@]1(C(=O)CO)CC[C@H]2[C@@H]3CCC4=CC(=O)CC[C@]4(C)[C@H]3[C@@H](O)C[C@@]21C	inactive
CNCCCCOc1ccccc1Cc1ccccc1	inconclusive: 29.8 µM [cytotoxic]
CCCn1cnc2c1c(=O)n(CCCCC(C)=O)c(=O)n2C	inactive
CCN(CC)CCOc1ccc2c(c1)C(=O)c1cc(OCCN(CC)CC)ccc1-2	inconclusive: 23.7 µM [cytotoxic, partial curve]
CCN(CC)c1ccc(N=Nc2ccccc2)cc1	inconclusive: 54.5 µM [cytotoxic, partial curve]
CN(C)CCC(c1ccc(Cl)cc1)c1ccccn1 (stereo not given)	inconclusive: 68.7 µM [cytotoxic, single point]
CC/C(=C\C(=N/O)C(N)=O)C(C)[N+](=O)[O-] (stereo not given)	inactive
CC1=NN(c2cc(Cl)c(S(=O)(=O)O)cc2Cl)C(=O)C1N=Nc1ccc(S(=O)(=O)O)cc1 (stereo not given)	inconclusive: 54.5 µM [cytotoxic, partial curve]
CC(=O)Nc1ccc(N=Nc2cc(C)ccc2O)cc1	inconclusive: 54.5 µM [cytotoxic, partial curve]
CCNc1cccc(C)c1	inactive
C1CCC2OC2C1 (stereo not given)	inactive
Cc1c(-c2ccccc2)oc2c(C(=O)OCCN3CCCCC3)cccc2c1=O	inactive
CC(C)(c1ccc(Oc2ccc(N)cc2)cc1)c1ccc(Oc2ccc(N)cc2)cc1	inconclusive: 61.1 µM [cytotoxic]
CSc1ccc(Oc2ccc(S(N)(=O)=O)cc2CN(C)C)cc1C	inactive
O=C(Nc1ccc(Cl)c(Cl)c1)C1CC1	inactive
